# Results: PubChem BioAssay AID1458 (National Center for Advancing Translational Sciences (NCATS), 2008)
# Among all 210,000 compounds or so, about 5,900 (2.8%) were called active. The shares of active, inactive and inconclusive entries below differ from those in the screen. Calls follow the shape of the dose curve; as a rule, active = well fitted activation curve with a large enough effect; inconclusive = small, poorly fitted or top-dose-only effect; inactive = no such curve, though single readings can be large or run the other way. A potency beside an inconclusive call is a rough fit, not a confirmed value.
# Assay: qHTS Assay for Enhancers of SMN2 Splice Variant Expression; also: nearly all actives have a fitted effect of over 55% in size; as to activity change, positive = activation: % of control where 0% means no effect
# Conditions: HEK293 SMN2-luciferase splicing reporter, luminescence, 30-36 h; activity change, positive = activation: at 46.1 µM (top of the series)
# Method in brief: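 HEK293 cells carry an SMN2 […]–luciferase reporter in which exon 7 inclusion puts luciferase in frame. Cells were plated 10-12 h before compound addition, then incubated 30-36 h at 37C. ONE-Glo luminescence was read; sodium butyrate at 4.5 mM final served as control.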
# Potency is read from the fitted curve at half-maximal effect; tags tell the direction and shape of the fitted curve.
Structure (SMILES),"activity change, positive = activation",Potency
C(=N\Nc1nc2ccccc2[nH]1)/C1CCCCC1,inactive: 1.98%,–
CC(=O)N1CCC2(CCN(Cc3cc(C(F)(F)F)cc(C(F)(F)F)c3)CC2)CC1,inactive: -12.5%,–
COc1ccc(CCNC(=O)Cn2nnc(-c3ccc(N4CCOCC4)cc3)n2)cc1OC,–,"inconclusive: 17.8 µM [activator, single point]"
CCOc1ccc2oc(C(=O)NC(C)(C)CC)c(C)c2c1,–,"inconclusive: 11.2 µM [activator, single point]"
CCOc1cc(/C=C2\N=C3CCCCCN3C2=O)ccc1O,–,"inconclusive: 35.5 µM [activator, single point]"
CSc1nc(-c2ccc(Cl)cc2)nn1S(=O)(=O)c1ccc(Cl)cc1,–,active: 11.2 µM
COc1ccc(-c2cc(C(=O)Nc3ccccc3)on2)cc1,–,"inconclusive: 35.5 µM [activator, single point]"
CCN(CC)c1ccc(NC(=O)c2cncc(Br)c2)cc1,–,"inconclusive: 31.6 µM [activator, single point]"
CCOc1ccc(C(=O)c2cnc3ccccc3c2N2CCN(CC)CC2)cc1,–,"inconclusive: 35.5 µM [activator, single point]"
N=C1c2ccccc2CN1NC(=O)c1cccc(S(=O)(=O)N2CCCCC2)c1,inactive: -0.77%,–
O=C(NCCc1nc2ccccc2[nH]1)/C(=C/c1ccco1)NC(=O)c1ccccc1Br,–,"inconclusive: 0.891 µM [activator, full curve, poor fit]"
Cc1ccc(-c2cc3ncc(C#N)c(N)n3n2)cc1,–,"inconclusive: 1.12 µM [activator, full curve]"
CC(=O)n1cc(/C=C2/N=C(c3ccccc3)OC2=O)c2ccccc21,inactive: -2.07%,–
CCC(=O)Nc1sc2c(c1C#N)CCCCC2,–,"inconclusive: 8.91 µM [activator, partial curve]"
CCOC(=O)N1CCN(C(=O)c2ccc(N(Cc3ccccc3)S(C)(=O)=O)cc2)CC1,inactive: 1.52%,–
CCSc1nnc(-c2ccc(Cl)cc2Cl)o1,–,"inconclusive: 14.1 µM [activator, partial curve, poor fit]"
CCC(=O)Nc1nc(-c2cc([N+](=O)[O-])cs2)cs1,inactive: 6.26%,–
CC(NC(=O)Nc1ccc(Br)cc1)C(C)(C)C (stereo not drawn),–,"inconclusive: 11.2 µM [activator, single point]"
Cc1ccc(Nc2nc(COC(=O)C3CC3)cs2)cc1,–,"inconclusive: 12.6 µM [activator, partial curve]"
O=C1/C(=C/c2cccnc2)SC(=S)N1C1CCS(=O)(=O)C1 (stereo not drawn),–,"inconclusive: 22.4 µM [activator, single point]"
CC(=O)Nc1ccc(C(=O)CSc2ncn(-c3ccccc3)n2)cc1,–,active: 7.08 µM
CCOc1ccc(/C=C(\C(=O)O)c2ccc(S(=O)(=O)N3CCOCC3)s2)cc1OC,–,"inconclusive: 3.98 µM [activator, partial curve]"
COc1ccc(S(=O)(=O)Nc2cc(-c3cn4ccccc4n3)ccc2C)cc1,inactive: 8.29%,–
Cc1ccccc1CSCCNC(=S)Nc1ccccc1,–,"inconclusive: 1.12 µM [activator, full curve, poor fit]"
Cc1ccc(Nc2c(-c3ccccc3O)nc3ccc(Br)cn23)cc1,inactive: 6.11%,–

Structure (SMILES),"activity change, positive = activation",Potency
Cc1ccc(-c2csc(NC(=S)NC(=O)c3cc4ccccc4o3)n2)cc1,–,"inconclusive: 5.01 µM [activator, full curve, poor fit]"
COc1cc(N)ccc1NC(=O)c1cccs1,–,"inconclusive: 10 µM [activator, partial curve, poor fit]"
O=c1[nH]c(-c2ccccn2)nc2sc(-c3ccccc3)cc12,–,active: 8.91 µM
Cc1ccc(S(=O)(=O)CCC(=O)NCc2ccco2)cc1,–,"inconclusive: 5.01 µM [activator, full curve]"
CCCCOc1ccc(C(=S)N2CCC(C(N)=O)CC2)cc1,–,"inconclusive: 3.16 µM [activator, partial curve, poor fit]"
O=C(c1cc(-c2ccc(F)cc2)on1)N1CCCc2ccccc21,–,"inconclusive: 4.47 µM [activator, single point]"
COc1cc(/C=N/NC(=O)CN2CCCCC2)ccc1OCc1ccc(Br)cc1,–,active: 10 µM
Cc1ccc(Nc2nc3ccccc3c(=O)[nH]2)cc1C,–,"inconclusive: 35.5 µM [activator, single point]"
CCc1ccc(CNc2nc3nc(C)c(Cc4ccccc4)c(=O)n3[nH]2)cc1,inactive: 7.52%,–
O=C(NCCc1ccncc1)Nc1ccccc1Cl,–,"inconclusive: 0.0045 µM [activator, full curve, poor fit]"
CCOC(=O)Cc1csc(NC(=O)CSc2cc(Cl)ccc2Cl)n1,–,"inconclusive: 0.891 µM [activator, single point]"
Cc1ccc(C(C[N+](=O)[O-])n2nc(C)cc2C)cc1 (stereo not drawn),–,"inconclusive: 8.91 µM [activator, partial curve]"
O=C(CC1NCCNC1=O)Nc1cccc(F)c1 (stereo not drawn),inactive: 10.3%,–
O=C(CCN1C(=O)c2cccc3cccc(c23)C1=O)N1CCOCC1,–,"inconclusive: 8.91 µM [activator, partial curve]"
COc1ccc(C2CC(=O)c3sc(NC(C)=O)nc3C2)cc1 (stereo not drawn),inactive: -13.4%,–
COCCNC(=O)COc1ccc(C)cc1C,inactive: 7.38%,–
O=C(NCCCn1ccnc1)c1ccco1,–,"inconclusive: 1.78 µM [activator, full curve]"
CCN(CC)CCCNC(=O)C(C)n1nc(C)c2sc3ccccc3c2c1=O (stereo not drawn),–,"inconclusive: 5.62 µM [activator, single point]"
Cc1ccc(CNC(=O)C2CCN(S(=O)(=O)c3ccc4c(c3)oc(=O)n4C)CC2)cc1,inactive: -3.39%,–
COc1ccc(NC(=O)C2CCN(S(=O)(=O)c3cccc4cccnc34)CC2)cc1OC,inactive: 21.9%,–
O=C1CC2C(CC(OC(=O)c3ccc(-c4ccccc4)cc3)C2CO)O1 (stereo not drawn),–,"inconclusive: 11.2 µM [activator, partial curve]"
O=C(NC1CCCC1)c1cc(-c2cccs2)on1,–,"inconclusive: 11.2 µM [activator, partial curve, poor fit]"
O=C(CCS(=O)(=O)c1cccs1)N1CCN(c2ccc(F)cc2)CC1,–,"inconclusive: 11.2 µM [activator, partial curve, poor fit]"
O=C(CNS(=O)(=O)c1ccc(Br)s1)N1CCN(c2ccccc2F)CC1,inactive: -13.7%,–
COC(=O)CC1COc2ccccc2N1C(=O)c1ccc(Br)cc1 (stereo not drawn),inactive: -15.6%,–

Structure (SMILES),"activity change, positive = activation",Potency
CCOc1cnc(-c2ccc(OC)cc2)o1,–,"inconclusive: 35.5 µM [activator, single point]"
Cc1cc(C)c2oc(-c3ccc(Cl)c(NC(=O)c4ccc(C#N)cc4F)c3)nc2c1,–,"inconclusive: 35.5 µM [activator, partial curve, poor fit]"
Cc1ccc(N(C(=O)CCC(=O)Nc2cc(C)on2)C(C(=O)NC2CCCC2)c2cccs2)cc1 (stereo not drawn),–,"inconclusive: 0.0141 µM [activator, full curve]"
CC1CCCCN1C(=O)CSc1nc2ccccc2[nH]1 (stereo not drawn),–,"inconclusive: 11.2 µM [activator, single point]"
CCCCNC(=O)COC(=O)c1c2c(nc3ccccc13)/C(=C/c1cccs1)CC2,–,active: 11.2 µM
CCc1ccc(C(=O)COC(=O)c2cncc(Br)c2)cc1,inactive: -18.5%,–
Cc1ccsc1/C=N/NC(=O)c1ccc([N+](=O)[O-])cc1,–,"inconclusive: 11.2 µM [activator, partial curve]"
Cc1ccccc1Nc1nc(N)nc(CSc2nnc3ccccn23)n1,–,"inconclusive: 11.2 µM [activator, partial curve]"
CCc1ccc(NC(=O)Cn2c(=O)n(CCCC(=O)NCCc3ccc(OC)c(OC)c3)c(=O)c3ccccc32)cc1,inactive: 6.39%,–
Nc1c(N2CCCCC2)c2ccccc2oc1=O,inactive: -15.7%,–
COc1cccc(/C=C/C(=O)c2ccc[nH]2)c1,–,"inconclusive: 35.5 µM [activator, single point]"
Cc1ccc(O)c(C2=NCCNC(C(F)(F)F)=C2)c1,inactive: -8.38%,–
O=c1c(-c2cc(-c3ccccc3)nc3c2COc2ccccc2-3)coc2ccc(Cl)cc12,inactive: 3.36%,–
C(=N\n1cnnc1)/c1cccs1,–,"inconclusive: 3.16 µM [activator, full curve]"
COc1ccccc1CNC(=O)CCCCn1c(=O)c2ccccc2n(CC(=O)Nc2cccc(Cl)c2)c1=O,inactive: -17.2%,–
Cc1cc(NC(=O)CSc2nc3ccccc3c(=O)n2C(C)c2ccccc2)no1 (stereo not drawn),–,"inconclusive: 35.5 µM [activator, single point]"
O=C(Cc1ccccc1)CC1(O)C(=O)Nc2ccccc21 (stereo not drawn),–,"inconclusive: 0.794 µM [activator, full curve, poor fit]"
C[C@H](NC(N)=O)C(=O)Nc1ccc(OCc2ccccc2)cc1,–,active: 15.8 µM
COc1ccc(C2CC(C(F)(F)F)n3nc(C(=O)NCCCn4ccnc4)cc3N2)cc1OC (stereo not drawn),–,"inconclusive: 6.31 µM [activator, single point]"
O=C(NC(Cc1c[nH]c2ccccc12)C(=O)Nc1ccc(F)c([N+](=O)[O-])c1)c1cccs1 (stereo not drawn),–,"inconclusive: 28.2 µM [activator, single point]"
CN1CCN(c2nc(Nc3cccc(C(F)(F)F)c3)nc(N3CCOCC3)n2)CC1,–,"inconclusive: 35.5 µM [activator, single point]"
Cc1cc(S(=O)(=O)NC2CCCCC2)c(C)s1,–,"inconclusive: 20 µM [activator, partial curve, poor fit]"
CC(=O)N1CCc2cc(S(=O)(=O)NC(CC(C)C)C(=O)Nc3cc(C)ccn3)ccc21 (stereo not drawn),–,"inconclusive: 0.794 µM [activator, full curve, poor fit]"
